# Measured values taken from article PMC4336329 (PLoS ONE, 2015).
# Hit rate of the full screen: of about 310,000 compounds, about 14,000 (4.5%) showed an effect of 50% or more. The effect is printed as a negative number. This is one part of the list.
# Biological target: human ether-à-go-go-related gene (hERG) potassium channel (human, UniProt Q12809)
# Assay: primary screen, population patch clamp on CHO cells stably expressing hERG
# 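Further: peak tail current of the secondary pulse compared with the same well before compound.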
# human ether-à-go-go-related gene (hERG) potassium channel, sequence (Q12809 whole entry, looked up): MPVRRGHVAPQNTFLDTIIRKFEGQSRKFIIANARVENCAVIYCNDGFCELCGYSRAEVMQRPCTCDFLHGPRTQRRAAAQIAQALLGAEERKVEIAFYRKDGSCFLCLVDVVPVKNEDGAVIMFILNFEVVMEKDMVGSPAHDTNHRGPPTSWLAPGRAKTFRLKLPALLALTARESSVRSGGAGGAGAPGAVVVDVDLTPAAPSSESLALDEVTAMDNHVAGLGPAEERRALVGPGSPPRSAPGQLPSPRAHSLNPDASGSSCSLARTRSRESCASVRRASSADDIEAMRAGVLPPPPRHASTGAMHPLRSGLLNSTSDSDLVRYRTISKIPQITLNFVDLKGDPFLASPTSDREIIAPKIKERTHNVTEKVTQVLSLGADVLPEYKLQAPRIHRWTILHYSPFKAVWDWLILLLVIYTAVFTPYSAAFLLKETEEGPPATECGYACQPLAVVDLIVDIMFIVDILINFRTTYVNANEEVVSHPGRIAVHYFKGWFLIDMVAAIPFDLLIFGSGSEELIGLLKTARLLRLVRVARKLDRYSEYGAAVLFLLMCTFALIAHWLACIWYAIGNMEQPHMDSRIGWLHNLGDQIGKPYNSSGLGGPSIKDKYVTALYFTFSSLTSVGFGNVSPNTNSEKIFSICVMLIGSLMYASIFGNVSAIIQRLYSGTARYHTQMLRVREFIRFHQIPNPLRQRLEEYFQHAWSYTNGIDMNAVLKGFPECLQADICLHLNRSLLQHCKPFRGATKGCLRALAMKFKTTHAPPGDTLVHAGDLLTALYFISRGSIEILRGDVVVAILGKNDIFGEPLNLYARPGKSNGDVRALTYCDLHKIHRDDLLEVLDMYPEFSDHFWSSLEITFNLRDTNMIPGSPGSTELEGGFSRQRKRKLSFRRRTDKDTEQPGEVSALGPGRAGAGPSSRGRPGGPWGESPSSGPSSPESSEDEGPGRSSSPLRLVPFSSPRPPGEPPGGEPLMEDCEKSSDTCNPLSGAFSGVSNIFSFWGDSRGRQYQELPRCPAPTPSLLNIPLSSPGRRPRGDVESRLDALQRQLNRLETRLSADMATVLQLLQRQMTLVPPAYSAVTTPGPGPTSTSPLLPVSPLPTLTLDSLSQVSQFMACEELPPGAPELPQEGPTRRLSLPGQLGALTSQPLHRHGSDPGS
row,Compound,"hERG current change (%, negative = inhibition) at 10uM [%]"
1,CCn1c(SCC(=O)Nc2ccc(C)cc2)nc2nc3c(cc2c1=O)CCCC3,-43.6
2,CCOC(=O)C1=C(C)NC(SCC(N)=O)=C(C#N)C1c1ccccc1 (centres unmarked),-5.21
3,Cc1cccc(C(=O)NCC(=O)OCC(=O)NCCNC(=O)COC(=O)CNC(=O)c2cccc(C)c2)c1,20.6
4,COc1ccccc1/C=N/NC(=O)c1ccccc1Cl,10
5,CCOC(=O)c1sc(/N=C/N(C)C)c(C(=O)OCC)c1C,-9.05
6,COc1ccc(S(=O)(=O)N2CCCCC2)cc1NC(=O)CN1C(=O)NC(C)(C2CC2)C1=O (centres unmarked),-9.15
7,O=C1C(Cl)=C(NCCN2CCOCC2)C(=O)c2ccccc21,-7.64
8,Cc1cccc(CCNC(=O)CCCOc2cc(=O)n(C)c3ccccc23)c1,-37.2
9,O=C(c1ccc([N+](=O)[O-])cc1)N1CCC(Cc2ccccc2)CC1,-73.4
10,COc1ccc(Br)cc1-c1nc(C)c(C(C)=O)n1O,19.4
11,Nn1c(SCC(=O)NC(=O)NCc2ccccc2)nnc1C1CC1,13.3
12,CC(OC(=O)Cn1cnc2c1c(=O)n(C)c(=O)n2C)C(=O)N(C)c1ccccc1 (centres unmarked),16.3
13,O=C(CSc1nc2c(cnn2-c2ccc(F)cc2)c(=O)[nH]1)N1CCCc2ccccc21,10.1
14,Cc1nn(CCCC(=O)N2CCN(c3ccc(F)cc3)CC2)c(C)c1[N+](=O)[O-],-62.1
15,CCc1noc(C)c1C(=O)NNC(=O)c1cc(OC)c(OC)c(OC)c1,-4.26
16,CC(Sc1ccccc1)C(=O)NN=C1CCCCCC1 (centres unmarked),2.77
17,CCOc1ccc(C(=O)Nc2c3c(nn2-c2ccccc2)CS(=O)(=O)C3)cc1,4.84
18,O=C(Nc1cccc(S(=O)(=O)c2cccc(NC(=O)c3ccco3)c2)c1)c1ccco1,-30.6
19,CCCCNC(=O)CCn1c(=O)c2ccccc2n(CC(=O)N2CC(C)CC(C)C2)c1=O (centres unmarked),-9.48
20,O=[N+]([O-])c1ccc(N2CCN(c3ccccn3)CC2)c(Cl)c1,0.0809
21,COc1ccc(F)cc1S(=O)(=O)NCC(c1ccco1)N1CCc2ccccc2C1 (centres unmarked),-30.4
22,CC(=O)NC1=NN(C(C)=O)C(c2cccc([N+](=O)[O-])c2)S1 (centres unmarked),6.1
23,Cn1nc(C(=O)OCC(=O)N2CCc3ccccc32)c2ccccc2c1=O,-32.9
